Data on 23 molecules can be found in publication PMC4336329 (PLoS ONE, 2015).

About 2,200 (0.71%) of roughly 310,000 compounds showed an effect of 50% or more. Effects have a minus sign here. The list shows a part of the results.

human ether-à-go-go-related gene (hERG) potassium channel, sequence (Q12809 whole entry, looked up): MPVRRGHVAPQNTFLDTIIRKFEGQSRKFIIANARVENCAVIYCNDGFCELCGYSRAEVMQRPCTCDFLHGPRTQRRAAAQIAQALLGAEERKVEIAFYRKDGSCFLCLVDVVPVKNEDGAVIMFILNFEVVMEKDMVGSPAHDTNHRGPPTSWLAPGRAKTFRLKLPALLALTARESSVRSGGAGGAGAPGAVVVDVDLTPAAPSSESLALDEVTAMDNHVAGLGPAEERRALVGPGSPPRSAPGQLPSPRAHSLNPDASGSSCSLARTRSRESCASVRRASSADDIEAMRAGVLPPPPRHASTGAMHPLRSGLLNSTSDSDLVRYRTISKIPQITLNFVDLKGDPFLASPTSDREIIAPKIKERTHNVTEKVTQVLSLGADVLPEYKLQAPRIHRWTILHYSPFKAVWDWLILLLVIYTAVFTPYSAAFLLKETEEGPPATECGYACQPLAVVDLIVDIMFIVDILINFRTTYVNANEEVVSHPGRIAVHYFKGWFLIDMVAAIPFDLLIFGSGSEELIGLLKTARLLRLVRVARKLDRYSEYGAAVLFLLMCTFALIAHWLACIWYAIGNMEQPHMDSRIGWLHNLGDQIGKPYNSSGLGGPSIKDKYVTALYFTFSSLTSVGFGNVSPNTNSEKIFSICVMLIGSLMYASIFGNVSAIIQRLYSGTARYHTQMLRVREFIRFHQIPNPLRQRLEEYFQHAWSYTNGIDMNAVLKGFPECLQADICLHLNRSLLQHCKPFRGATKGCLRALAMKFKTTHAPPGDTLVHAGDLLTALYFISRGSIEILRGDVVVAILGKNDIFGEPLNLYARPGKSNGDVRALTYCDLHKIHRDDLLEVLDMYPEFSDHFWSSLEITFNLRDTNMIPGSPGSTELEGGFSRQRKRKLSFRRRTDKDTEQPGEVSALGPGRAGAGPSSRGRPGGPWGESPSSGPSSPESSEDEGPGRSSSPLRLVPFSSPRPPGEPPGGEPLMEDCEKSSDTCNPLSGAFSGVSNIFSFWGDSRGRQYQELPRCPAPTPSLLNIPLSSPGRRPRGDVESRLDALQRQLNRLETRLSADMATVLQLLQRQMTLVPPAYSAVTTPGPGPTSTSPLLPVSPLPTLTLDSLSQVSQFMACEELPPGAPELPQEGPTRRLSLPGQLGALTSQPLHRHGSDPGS

The assay has as its target human ether-à-go-go-related gene (hERG) potassium channel (human, UniProt Q12809). The assay can be described thus: primary screen, population patch clamp on CHO cells stably expressing hERG.
For `O=C(OCC(=O)c1c[nH]c2ccccc12)c1cccc([N+](=O)[O-])c1`, the “hERG current change (%, negative = inhibition) at 1uM” value is given as -4.24%.
In the case of `O=C(CSc1ncnc2c1oc1ccccc12)NCC1CCCO1` (centres unmarked) it was 7.54%; in that of `CN(C)c1ccc(C(=O)N2CCCC(N3CCN(Cc4ccc5c(c4)OCO5)CC3)C2)cc1` (centres unmarked), -39.6%; in that of `COCCNC(=O)N1[C@H]2CC[C@@H]1C(C(=O)OC)=C(c1cccc(C#N)c1)C2`, 14%.
Regarding `Cc1cc(C)n(CCOC(=O)c2sc3ccccc3c2Cl)n1`, the “hERG current change (%, negative = inhibition) at 1uM” value is 13.2%.
As to `CCOc1cccc2sc(N(CCN(C)C)C(=O)c3ccc4c(c3)OCCO4)nc12.Cl`, the “hERG current change (%, negative = inhibition) at 1uM” value is on record as -1.06%.
The result for `CCN(CC)c1ccc(/C=N/Nc2nn[nH]n2)cc1` reads 9.69%.
Take `S=C(c1ccc2c(c1)OCO2)N1CCCCCC1`: the “hERG current change (%, negative = inhibition) at 1uM” value is reported as 8.09%.
Regarding `O=C(NCc1ccccc1)c1cnc(-c2ccccn2)nc1C(F)(F)F`, the “hERG current change (%, negative = inhibition) at 1uM” value turned out to be 9.39%.
The result for `COc1cc(CNS(=O)(=O)CCl)cc(OC)c1OC` reads 15%.
For `O=c1c(Cl)c(N2CCN(c3ccc(F)cc3)CC2)cnn1-c1nc2ccccc2s1`, the “hERG current change (%, negative = inhibition) at 1uM” value was 9.72%.
With `O=C(CCNC(=O)c1ccc([N+](=O)[O-])cc1)NCCc1ccc(Cl)cc1`, the “hERG current change (%, negative = inhibition) at 1uM” value is given as -5.18%.
In the case of `C=CCN(c1ccccc1)S(=O)(=O)c1cccc(C(=O)N2CCCC2)c1` it was -2.9%.
In the case of `CN(Cc1ccc(OC(F)F)cc1)C(=O)C1CCN(S(=O)(=O)c2ccc3c(c2)OCCO3)CC1` it was -9.72%; in that of `CCN1CCN(c2ccc(S(=O)(=O)N3CCCCC3)cc2NC(=O)c2ccc([N+](=O)[O-])o2)CC1`, -73.3%; in that of `O=C(CN1C(=O)NC2(CCCCC2)C1=O)Nc1ccc(S(=O)(=O)N2CCOCC2)cc1`, 8.53%.
The result for `O=C(NC1CCN(C(=O)Nc2ccc(F)cc2)CC1)c1ccc(F)cc1` reads -9.54%.
Take `COc1ccc2c(c1)CC/C(=C\c1ccc(C)o1)C2=O`: the “hERG current change (%, negative = inhibition) at 1uM” value is 14.4%.
For the molecule `O=C(O)c1ccccc1C(=O)Nc1ccc(Nc2ccc([N+](=O)[O-])cc2[N+](=O)[O-])cc1`, the “hERG current change (%, negative = inhibition) at 1uM” value is recorded as 14.2%.
The result for `CCCC(=NCCc1c(C)[nH]c2ccccc12)C1=C(O)CC(c2ccccc2)CC1=O` (centres unmarked) reads -11.1%.
The result for `CCOC(=O)c1ccc(NC(=O)N2C[C@@H]3C[C@@H](C2)c2cccc(=O)n2C3)cc1` reads 7.4%; that for `Cc1onc(-c2ccccc2)c1C(=O)NNC(=S)NC(=O)c1ccc(Br)cc1`, 11.3%; that for `COc1ccccc1C(=O)Nc1ncc2c(n1)CC(c1ccco1)CC2=O` (centres unmarked), 2.28%.
